Laboratory results reported in the supplement of paper PMC3334620.
Whole data set: some 33,000 sequences, median “E-score (-0.5 to 0.5)” near -0.054, cut for the highest 2% near 0.39. Some of the results follow.

Target: Ylr278c (UniProt Q05854)
Assay: PBM E-score (8-mer binding enrichment) (E-score (-0.5 to 0.5)); higher = stronger / more preferred TF binding; most listed sequences are background and not binding sites
Details: protein concentration: 200 nM; construct: GST-DNA-binding domain
How it was run: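 Yeast transcription factors, full-length or as DNA-binding domains, were expressed with a GST tag using PURExpress in vitro transcription/translation. At about 100-200 nM they were applied to universal all-10-mer Agilent arrays, double-stranded by primer extension on fresh or once-stripped slides. Fluorescent anti-GST detected bound protein, and masliner normalised the scans. E-scores for ungapped eight-base words, pooled with reverse complements, came from the Universal PBM Analysis Suite.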

Row | Sequence | PBM E-score
1 | ATCCTACA | -0.167
2 | CGGAGCAC | 0.391
3 | ATCATGCG | 0.0437
4 | ACGGGGAG | 0.07
5 | CGTAACAG | 0.0692
6 | ATTCAAAG | -0.141
7 | CGCGGGTC | 0.224
8 | CAACGACA | -0.0546
9 | CCTTAGTA | -0.0386
10 | AACTCCGC | 0.49
11 | CAGACCTA | -0.328
12 | CTCGAAAA | -0.153
13 | CAAAAACG | 0.052
14 | CGGGGGCA | -0.00606
15 | CAACCAAG | -0.174
16 | AGTAACAG | -0.0634
17 | GACGAATC | -0.0908
18 | CGCTCATA | -0.161
19 | AGATACCC | 0.055
20 | AAGCCCGG | 0.416
21 | GAACGATA | -0.091
22 | ACATGAGC | -0.145
23 | CAGACCCC | -0.0599
24 | ACCTCTGG | -0.135
25 | AAACCCTA | -0.111

Row | Sequence | PBM E-score
26 | TAGAGAGA | -0.276
27 | CCCCAGGG | -0.211
28 | ACAAATCA | -0.161
29 | AGAGATGG | -0.036
30 | GTGATAAC | 0.0272
31 | GGATCACA | 0.118
32 | CACCGCCA | 0.0608
33 | GCGTCGCC | 0.115
34 | CAATTGCC | 0.00964
35 | ATGCCCAC | -0.117
36 | CGGTTCTA | 0.15
37 | CTCCAACC | 0.0151
38 | AAATTTAC | 0.0141
39 | GAAAAACC | 0.25
40 | CTCGGTGC | 0.0178
41 | CGCACTGC | 0.107
42 | ACGCAGGG | -0.0896
43 | AAGCGGGG | 0.112
44 | CGTTTAAG | -0.0941
45 | AGCTCAGC | -0.282
46 | AACCATCG | 0.0694
47 | CACAGCTG | -0.106
48 | CTCACGGC | 0.138
49 | ATTGTACC | -0.105
50 | GGTACCGA | 0.135

Row | Sequence | PBM E-score
51 | TACGCCGA | 0.293
52 | AAATAGGG | -0.0513
53 | GGCACTTA | -0.239
54 | CAGTTAGG | -0.137
55 | AGTCTTAG | -0.244
56 | ACCTTGAG | -0.131
57 | GGGTAAAC | 0.0949
58 | GAACAGTA | -0.0875
59 | ACCAGGGT | -0.206
60 | CAGAATGG | -0.0518
61 | CCGGCCCC | 0.307
62 | GTTATACA | -0.117
63 | AACTGTAC | -0.195
64 | GTGAATCA | -0.104
65 | AAATGTGT | -0.0971
66 | AGACGTCT | -0.209
67 | AGCGAATA | -0.0504
68 | CTGATGTA | -0.102
69 | TCAATGCA | -0.28
70 | CGACAGGC | -0.168
71 | ACGGGTAG | -0.155
72 | ACCTCCAG | -0.111
73 | AAAAGCGT | -0.0372
74 | AAGCTATC | -0.06
75 | ATGTACGA | -0.0123

Row | Sequence | PBM E-score
76 | CAGGAACG | -0.153
77 | GTAATTCA | -0.0661
78 | GCCATGAC | -0.144
79 | CTGAGAGA | -0.298
80 | ATCAGTGC | -0.235
81 | GTAACCGA | 0.0372
82 | ATGAAGTG | -0.0885
83 | CCACAGCA | -0.109
84 | ACCGCAAT | 0.16
85 | CATCTTGC | -0.0382
86 | AACACGCG | -0.142
87 | AGCGTAAA | -0.00156
88 | CAAAAATC | -0.1
89 | ATGCTAAA | -0.173
90 | GGTGCGTA | -0.0366
91 | AAAATTTG | -0.22
92 | GGAGCACA | 0.123
93 | AGCGCTCC | 0.0243
94 | ATGGTGTA | -0.255
95 | GCGGATCA | 0.212
96 | TCTCACCA | 0.0252
97 | CATATGCC | 0.0552
98 | ATTTGCCA | -0.237
99 | AGATAACT | -0.0472
100 | CGATGGGA | 0.173

Row | Sequence | PBM E-score
101 | CCAGGGAA | -0.274
102 | GTGTCACA | 0.0634
103 | ACGTTACC | -0.066
104 | TGGGTTAA | -0.21
105 | ACACCTGG | -0.243
106 | GAAGGTCC | 0.198
107 | GGTCAATA | -0.137
108 | ATGGTTCG | 0.0265
109 | GCAGCAGC | -0.198
110 | ACGTACAG | -0.125
111 | ACGACGCG | 0.0212
112 | CACTGTGG | -0.303
113 | GCACATCA | -0.0109
114 | TAGACTAA | -0.227
115 | AGGAGATG | -0.0733
116 | CGTTGATA | 0.121
117 | GGGCCAAA | -0.00886
118 | GTTCCAGA | -0.266
119 | ATTCAATC | 0.0442
120 | GAGTTGGC | 0.046
121 | CCGGAAGA | 0.421
122 | AGTAAGGC | 0.0309
123 | AAACCATC | 0.18
124 | AACCGACG | 0.198
125 | CCCCAATA | -0.116

Row | Sequence | PBM E-score
126 | AGTTCTAA | -0.0282
127 | ACCACGCA | -0.29
128 | CATACGCC | -0.0581
129 | AGTGACTC | -0.202
130 | CTAGTGTC | -0.0814
131 | AGGACGTG | -0.147
132 | GTTCTCGA | -0.251
133 | AATTAATT | -0.056
134 | GTTCGATA | 0.032
135 | TAAGTCGA | -0.243
136 | ATCCGGGC | 0.406
137 | AATCCCCG | 0.398
138 | AGGCCCCC | -0.0135
139 | CTGGATAA | 0.00624
140 | GCTTTTTA | -0.0143
141 | ACTTATGA | -0.124
142 | ACGTGAGA | -0.147
143 | AAAGGTCC | 0.00747
144 | AGAGAGTG | -0.224
145 | ACCTTGGA | -0.0698
146 | CTCGCGCC | 0.149
147 | AGCGACTA | -0.27
148 | CAAGGCTA | 0.0372
149 | ACATCCTA | -0.281
150 | ACTCTTTA | -0.29

Row | Sequence | PBM E-score
151 | AATGCGTA | -0.0855
152 | GTGCGTGA | 0.0427
153 | AAAAGACC | -0.0155
154 | CATGCAAC | -0.00565
155 | CCAGCGAC | -0.26
156 | CTAATAAC | -0.0371
157 | AGTATAGG | 0.00653
158 | CTTGCATC | -0.0743
159 | ATGCCGCC | 0.325
160 | CTTGCGAA | 0.166
161 | ACTGCGTC | -0.239
162 | ATCGTCGG | 0.248
163 | ACTCGTTC | -0.17
164 | ACGGAAAT | 0.378
165 | GAACGCAA | -0.0321
166 | AGGTTAGG | -0.0362
167 | AACAAAAA | -0.0965
168 | ACCCAGGT | -0.143
169 | TAGCACCA | -0.146
170 | GCGAGTCA | -0.0556
171 | CGCAACTC | 0.168
172 | AAGGGCCC | -0.0976
